Literature values as cited in patent publication US20220323482A1, “LNP-[…] THERAPEUTICS AND USE THEREOF FOR TREATING HUMAN SUBJECTS” (priority 2019, published 2022).

Tested on: chikungunya virus strains from African, Asian, and American viral lineages

B1: CHIKV-24 (antibody)
heavy: QVQLVESGGGVVQPGKSLRLSCAASGFTFRNYGMHWVRQAPGKGLDWVALISYDGTHKYYKDSLKGRFTISRDNFQNTVDLQINSLRPDDTAVYYCAKELATSGVVEPLDSWGQGTLVTVSS[omitted - human IgG1 constant region with changes]
light: EIVLTQSPGTLSLSPGERATLSCRASQSLVSSYFGWYQQKRGQSPRLLIYAASTRATGIPDRFSGSGSGTDFTLTISRLEPEDFAVYYCQQYGNTPFTFGGGTKVEIKRTVAAPSVFIFPPSDEQLKSGTASVVCLLNNFYPREAKVQWKVDNALQSGNSQESVTEQDSKDSTYSLSSTLTLSKADYEKHKVYACEVTHQGLSSPVTKSFNRGEC
  in vitro neutralizing activity EC50: < 0.01 µg/mL
